Test results from article PMC4336329 (PLoS ONE, 2015).
The campaign covered roughly 310,000 compounds. About 2,200 (0.71%) showed an effect of 50% or more. Effects have a minus sign here. The list shows a part of the results.

Molecular target: human ether-à-go-go-related gene (hERG) potassium channel (human, UniProt Q12809)
Assay: primary screen, population patch clamp on CHO cells stably expressing hERG

human ether-à-go-go-related gene (hERG) potassium channel, sequence (Q12809 whole entry, looked up): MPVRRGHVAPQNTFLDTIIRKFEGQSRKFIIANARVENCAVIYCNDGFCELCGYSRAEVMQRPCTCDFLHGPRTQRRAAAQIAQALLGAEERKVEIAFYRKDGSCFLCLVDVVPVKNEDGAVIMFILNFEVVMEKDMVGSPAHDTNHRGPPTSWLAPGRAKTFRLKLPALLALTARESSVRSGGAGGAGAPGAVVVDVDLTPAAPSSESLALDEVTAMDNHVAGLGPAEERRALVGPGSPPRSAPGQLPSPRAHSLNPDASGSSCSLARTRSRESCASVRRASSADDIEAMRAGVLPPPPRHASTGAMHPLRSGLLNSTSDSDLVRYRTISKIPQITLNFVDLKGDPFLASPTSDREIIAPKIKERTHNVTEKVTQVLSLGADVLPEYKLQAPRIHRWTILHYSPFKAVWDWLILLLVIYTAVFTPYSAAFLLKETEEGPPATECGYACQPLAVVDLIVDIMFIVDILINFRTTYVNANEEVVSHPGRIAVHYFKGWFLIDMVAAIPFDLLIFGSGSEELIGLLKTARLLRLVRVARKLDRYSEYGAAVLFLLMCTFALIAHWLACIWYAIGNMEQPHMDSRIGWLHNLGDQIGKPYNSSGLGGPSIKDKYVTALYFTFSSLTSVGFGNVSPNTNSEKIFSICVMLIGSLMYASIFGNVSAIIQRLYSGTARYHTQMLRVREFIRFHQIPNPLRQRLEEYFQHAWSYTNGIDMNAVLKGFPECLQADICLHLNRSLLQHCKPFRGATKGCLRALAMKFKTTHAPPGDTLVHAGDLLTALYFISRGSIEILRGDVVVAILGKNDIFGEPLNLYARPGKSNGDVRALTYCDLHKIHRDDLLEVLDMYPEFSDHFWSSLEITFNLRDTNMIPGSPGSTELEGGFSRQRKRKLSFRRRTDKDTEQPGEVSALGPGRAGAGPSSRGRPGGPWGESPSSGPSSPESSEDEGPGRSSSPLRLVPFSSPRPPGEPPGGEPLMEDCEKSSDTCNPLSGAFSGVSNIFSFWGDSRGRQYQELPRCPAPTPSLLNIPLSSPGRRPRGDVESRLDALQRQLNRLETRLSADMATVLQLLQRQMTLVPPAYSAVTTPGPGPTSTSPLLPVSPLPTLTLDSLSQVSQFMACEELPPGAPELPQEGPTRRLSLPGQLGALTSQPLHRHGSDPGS

Compared with `CC1CCC(NC(=O)c2cc(S(=O)(=O)N(C)C)ccc2N2CCCC2)CC1` (stereo not shown), `CCOc1ccccc1C(=O)Nc1cc2c(cc1N1CCCC1)n(CC)c(=O)n2CC` is lower in “hERG current change (%, negative = inhibition) at 1uM” value: 13.9% for the first, -3.41% for the second.

First: O=C(Nc1ccc(O)cc1)c1ccc(NC(=O)c2cccs2)cc1
Second: Cc1ccc(-c2nc3ncccc3o2)cc1NC(=O)c1cccs1
The “hERG current change (%, negative = inhibition) at 1uM” value of the first is higher: 14.8% for the first, 6.94% for the second.

First: COc1ccccc1Cn1c(=S)[nH]c2ccccc2c1=O
Second: COc1ccccc1NC(=O)CSc1nnnn1-c1ccc(C)cc1
The “hERG current change (%, negative = inhibition) at 1uM” value of the first is higher: 23.1% for the first, 9.73% for the second.

Compared with `CC(=O)Nc1ccc(S(=O)(=O)NCc2ccc3c(c2)cc(C)n3C)cc1`, `COc1ccc(N(C)S(=O)(=O)c2cccc(C(=O)Nc3ccc4c(c3)OCCO4)c2)cc1` is higher in “hERG current change (%, negative = inhibition) at 1uM” value: -0.906% for the first, 2.36% for the second.

Going from `Cc1ccc(S(=O)(=O)/N=C2\CN(C)C(=O)N2C)cc1` to `Cc1ccc(S(=O)(=O)N2CCN(C(=O)CSc3nccn3C)CC2)cc1`, the “hERG current change (%, negative = inhibition) at 1uM” value rises from 5.41% to 19.2%.

Compared with `CC(C)CCC(C(=O)NC(C)c1ccccc1)C(=O)NC(C)c1ccccc1` (stereo not shown), `COc1ccc(NC(=O)CC(NC(C)c2ccccc2)C(=O)O)cc1` (stereo not shown) is lower in “hERG current change (%, negative = inhibition) at 1uM” value: 14.5% for the first, 7.28% for the second.

Compared with `COc1ccc(C)cc1NC(=O)N1CCCc2ccccc21`, `CC(C)(C)C(=O)Nc1ccccc1N1CCN(c2ccc(F)cc2)CC1` is lower in “hERG current change (%, negative = inhibition) at 1uM” value: 15.7% for the first, 13.1% for the second.

Going from `O=S(=O)(Cc1ccccc1Cl)N1CCCC1` to `CCOC(=O)N1CCN(C(=O)CN(C)S(=O)(=O)c2ccc(F)cc2)CC1`, the “hERG current change (%, negative = inhibition) at 1uM” value rises from 5.84% to 24.6%.

Going from `N#Cc1nc(Nc2cccc(Cl)c2)c2ncn(C3CCCC3)c2n1` to `Cc1cc2nnc(SC3CCCCN(C(=O)c4ccc(F)cc4)C3=O)n2c2ccccc12` (stereo not shown), the “hERG current change (%, negative = inhibition) at 1uM” value falls from 14.3% to 0.556%.

First: C=CCn1c(SCC(=O)c2ccc(CNC(C)=O)o2)nc2scc(C3CC3)c2c1=O
Second: O=C(NCCN1C(=O)S/C(=C\c2cccc(Cl)c2Cl)C1=O)C1=COCCO1
The “hERG current change (%, negative = inhibition) at 1uM” value of the first is lower: 4.5% for the first, 11.3% for the second.

Going from `Cc1ccc(S(=O)(=O)N2CCN(C(=O)CCn3nc(C)c(C)c3C)CC2)cc1C` to `Cc1ccc(NC(=O)CCN2CC(C)OC(C)C2)cc1C.Cl` (stereo not shown), the “hERG current change (%, negative = inhibition) at 1uM” value rises from 3.83% to 15.3%.

First: N#C/C(N)=C(/N)C#N
Second: N#Cc1ccc(-c2ccc(OCC(=O)Nc3cccnc3)cc2)cc1
The “hERG current change (%, negative = inhibition) at 1uM” value of the first is lower: 12.6% for the first, 16.3% for the second.

First: OCC[C@@H]1C[C@H](O)[C@@H](O)[C@@]2(OCCc3ccccc32)O1
Second: CCC(=O)N1c2ccccc2NC2=C(C(=O)CC(C)(C)C2)C1c1ccc(O)c(OC)c1 (stereo not shown)
The “hERG current change (%, negative = inhibition) at 1uM” value of the first is lower: 14.2% for the first, 15.6% for the second.

First: CCN(CC(=O)Nc1ccc(OC)cc1)C(=O)c1oc2c(Cl)cccc2c1C
Second: CCn1cc(C(=O)N(C)Cc2ccc(OC(F)F)cc2)c(=O)c2ccc(C)nc21
The “hERG current change (%, negative = inhibition) at 1uM” value of the first is higher: 2.23% for the first, -33.5% for the second.

First: CCCCCN(C(=O)CCCSc1nncs1)c1c(N)n(CCCC)c(=O)[nH]c1=O
Second: CCn1c(SCC(=O)Nc2nncs2)nnc1-c1ccco1
The “hERG current change (%, negative = inhibition) at 1uM” value of the first is higher: 19.1% for the first, 15.5% for the second.

Compared with `O=C(O)CCCC(=O)Nc1ccc(-n2ccc(C(F)(F)F)n2)cc1`, `O=C(CSCCO)Nc1cc(C(F)(F)F)ccc1Cl` is lower in “hERG current change (%, negative = inhibition) at 1uM” value: 15.7% for the first, -1.1% for the second.

Going from `CCn1cc(C(=O)NCc2ccccc2F)c(=O)c2ccc(C)nc21` to `O=C(CCc1nc2ccccc2c(=O)[nH]1)OCc1nnc(-c2ccccc2)o1`, the “hERG current change (%, negative = inhibition) at 1uM” value falls from 9.97% to 9.39%.

First: CSc1nc(NCC(C)C)c2c3c(sc2n1)CN(C)CC3
Second: Cc1n[nH]c(=O)c2c(NC(=O)CSc3nncn3C(C)C)oc(C)c12
The “hERG current change (%, negative = inhibition) at 1uM” value of the first is lower: -9.92% for the first, 8.24% for the second.

First: O=c1[nH]cn[nH]1
Second: CNC(=O)c1[nH]cnc1C(=O)Nc1ccc(Cl)cc1
The “hERG current change (%, negative = inhibition) at 1uM” value of the first is higher: 17.7% for the first, 8.47% for the second.

First: CSc1ccc(C=O)cc1
Second: Cc1cc(-c2ccccc2)nc(N/N=C/c2ccccc2)n1
The “hERG current change (%, negative = inhibition) at 1uM” value of the first is higher: 9.69% for the first, 5.77% for the second.

Compared with `CC(=O)OCC(OC(C)=O)C(OC(C)=O)C(OC(C)=O)C(=O)Nc1ccc(C)cc1` (stereo not shown), `CCOc1ccc(N(CC(=O)NCCSCc2ccccc2)S(=O)(=O)c2ccccc2)cc1` is higher in “hERG current change (%, negative = inhibition) at 1uM” value: -3.41% for the first, 8.64% for the second.

With `CCOc1cc(N2CCOCC2)c(OCC)cc1NC(=O)Cn1cnc2c(=O)n(C)c(=O)n(C)c21` the “hERG current change (%, negative = inhibition) at 1uM” value was -1.22%.
